From PubChem BioAssay AID1768 (National Center for Advancing Translational Sciences (NCATS), 2009)
In all, about 270,000 compounds went through this assay and about 620 (0.23%) were called active. This list was built around the results that the source calls inconclusive (neither active nor inactive); the mix of calls is not that of the screen. Calls follow the shape of the dose curve; as a rule, active = well fitted inhibition curve with a large enough effect in the polarisation, with a control signal flat (not every such curve was filed as active); inconclusive = small, poorly fitted or top-dose-only effect, or effect the other way, or a change in a side signal; inactive = no such curve, though single readings can be large or run the other way; the % refers to the polarisation. Potencies beside an inconclusive call are fits to weak or partial responses and may not hold up. A note “side channel” means that the fit belongs to a control or component signal, not to the main read-out.

Target: Menin (Homo sapiens) (UniProt O00255)
UniProt O00255, sequence (O00255 whole entry, looked up): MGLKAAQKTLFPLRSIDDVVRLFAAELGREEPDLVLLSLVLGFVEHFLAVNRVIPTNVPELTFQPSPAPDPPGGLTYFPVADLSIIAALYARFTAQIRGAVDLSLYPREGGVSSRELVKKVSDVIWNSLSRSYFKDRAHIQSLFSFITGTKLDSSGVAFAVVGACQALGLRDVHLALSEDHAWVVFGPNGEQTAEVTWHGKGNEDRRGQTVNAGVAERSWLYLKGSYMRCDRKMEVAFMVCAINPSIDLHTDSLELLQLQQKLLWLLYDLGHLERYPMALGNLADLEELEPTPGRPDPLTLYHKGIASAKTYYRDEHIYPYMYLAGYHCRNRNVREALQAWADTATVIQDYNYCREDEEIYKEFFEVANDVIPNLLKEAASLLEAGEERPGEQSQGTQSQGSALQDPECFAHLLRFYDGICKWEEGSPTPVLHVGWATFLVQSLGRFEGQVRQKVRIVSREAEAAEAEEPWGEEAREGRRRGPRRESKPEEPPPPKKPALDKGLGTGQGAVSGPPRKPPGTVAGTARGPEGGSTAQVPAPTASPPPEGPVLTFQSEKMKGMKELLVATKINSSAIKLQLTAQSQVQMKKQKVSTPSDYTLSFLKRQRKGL
Assay: qHTS Assay for Inhibitors Targeting the Menin-MLL Interaction in MLL Related Leukemias: Competition With Texas Red Labeled MLL-derived Mutant Peptide; as to FP activity change, negative = inhibition: % of control where 0% means no effect
Conditions: fluorescence polarization; FP activity change, negative = inhibition: at 61.6 µM (top of the series)
Potency is read from the fitted curve at half-maximal effect; tags tell the direction and shape of the fitted curve or compound fluorescence and quenching.

Structure (SMILES) | Potency | FP activity change, negative = inhibition
Nc1ccc(Oc2cc(N)cc(Oc3ccccc3)c2)cc1 | inconclusive: 17.8 µM [quencher, side channel, partial curve] | 
CCOC(=O)c1cc(-c2ccc(N)cc2)sc1N | inconclusive: 22.4 µM [quencher, side channel, single point] | 
O=C(CSc1nnc(Cn2c(=O)sc3ccccc32)n1CCc1ccccc1)N1CCCC1 | inconclusive: 28.2 µM [fluorescent, side channel, single point] | 
COc1ccc(/C=C/c2ccc3cccc(O)c3n2)cc1Br | inconclusive: 2.51 µM [quencher, side channel, full curve, poor fit] | 
Cc1cc(C)c2cc(CN(Cc3cccs3)Cc3nnnn3CC3CCCO3)c(=O)[nH]c2c1 (stereo not given) | inconclusive: 1.41 µM [inhibitor, full curve, poor fit] | 
Fc1ccc(Sc2cc(Cl)c(-c3ccccc3)nn2)cc1 | inconclusive: 2.51 µM [inhibitor, full curve, poor fit] | 
NC(=O)CSc1nnc(-c2ccc(S(=O)(=O)N3CCOCC3)cc2)n1Cc1ccccc1 | inconclusive: 15.8 µM [inhibitor, partial curve, poor fit] | 
CN(C)Cc1ccccc1-c1cncnc1NCc1cccnc1 |  | inactive: -15.9%
CCc1nnc(NS(=O)(=O)c2ccc(N/C=C\C(=O)c3cccc(OC)c3)cc2)s1 | inconclusive: 28.2 µM [quencher, side channel, partial curve] | 
O=[N+]([O-])c1ccc(Sc2n[nH]c(-c3ccc(Cl)cc3Cl)n2)nc1 | inconclusive: 39.8 µM [quencher, side channel, single point] | 
Cc1cccc(C(=O)Nc2cccc(Br)c2)c1[N+](=O)[O-] | inconclusive: 11.2 µM [quencher, side channel, partial curve] | 
C/C(=N\Nc1cc(-c2ccccc2)nc(-c2ccccc2)n1)c1ccc(O)c(C)c1 | inconclusive: 1.26 µM [quencher, side channel, full curve] | 
CCn1c(=O)c(C(=O)NNC(=O)c2ccccc2F)c(O)c2ccccc21 | inconclusive: 31.6 µM [quencher, side channel, single point] | 
CC1CCc2nc3ccc(S(=O)(=O)N4CCC(C(=O)NC(C)c5ccccc5)CC4)cc3c(C(=O)O)c2C1 (stereo not given) | inconclusive: 22.4 µM [quencher, side channel, single point] | 
Cc1noc(C(=O)N2CCN(Cc3ccc4c(c3)OCO4)CC2)c1Cl | inconclusive: 3.55 µM [inhibitor, full curve] | 
CCC1(C)Cc2c(sc3nc(SC)[nH]c(=S)c23)CO1 (stereo not given) | inconclusive: 12.6 µM [quencher, side channel, partial curve] | 
NC(=O)c1ccsc1NC(=O)COC(=O)C1CCCN1C(=O)c1cccs1 (stereo not given) | inconclusive: 25.1 µM [quencher, side channel, single point] | 
CCC(=O)N(CCc1ccccc1)Cc1cc2ccc(OC)cc2[nH]c1=O | inconclusive: 6.31 µM [inhibitor, full curve] | 

Structure (SMILES) | Potency | FP activity change, negative = inhibition
O=C1CSC(=S)N1/N=C/c1cccc(C(F)(F)F)c1 | inconclusive: 14.1 µM [quencher, side channel, single point] | 
Cc1ccccc1NC(=S)NNc1ncc(C(F)(F)F)cc1Cl |  | inactive: 2.99%
COc1ccccc1N1CCN(C(=O)CN(c2ccccc2OC)S(=O)(=O)c2ccccc2)CC1 | inconclusive: 31.6 µM [inhibitor, single point] | 
CCOc1c2ccoc2nc2c(OC)c(OC)ccc12 | inconclusive: 11.2 µM [inhibitor, partial curve] | 
Cc1cccc(C(=O)NNC(=O)c2c(O)c3ccccc3n(C)c2=O)c1 | inconclusive: 39.8 µM [quencher, side channel, single point] | 
C[C@@H](NCCCc1cccc(C(F)(F)F)c1)c1cccc2ccccc12 |  | inactive: 7.77%
O=C(Cn1ncc2c([nH]c3ccccc32)c1=O)N1CCN(c2ccccc2F)CC1 | inconclusive: 25.1 µM [fluorescent, side channel, partial curve] | 
CCN(CC)S(=O)(=O)c1ccc(NC(=O)COC(=O)c2ccc(Br)o2)cc1 | inconclusive: 14.1 µM [quencher, side channel, partial curve] | 
CS(=O)(=O)Nc1cccc(C2=NN(C(=O)c3cccc(F)c3)C(c3cccs3)C2)c1 (stereo not given) | inconclusive: 15.8 µM [quencher, side channel, single point] | 
COc1ccc(CN2CCC(CO)(Cc3cccc(C(F)(F)F)c3)CC2)cc1Cn1cccn1 | inconclusive: 12.6 µM [fluorescent, side channel, partial curve] | 
O=C(CCN1C(=O)C2C3C=CC(C4CC34)C2C1=O)Oc1ccc(Br)cc1 (stereo not given) | inconclusive: 20 µM [fluorescent, side channel, partial curve] | 
CCOC(=O)C(C(=O)N(C)C)c1ncc(C(F)(F)F)cc1Cl (stereo not given) | inconclusive: 2.82 µM [inhibitor, partial curve] | 
Cc1c(Br)cc(C(=O)N2CCCCCC2)c(C)c1C | inconclusive: 3.55 µM [fluorescent, side channel, full curve, poor fit] | 
COc1ccc(S(=O)(=O)c2ccccc2)cc1NC(=O)c1c(F)cccc1F | inconclusive: 28.2 µM [quencher, side channel, single point] | 
Cc1ccc(C)c(N(C(=O)CNC(=O)c2ccco2)C(C(=O)NC2CCCCC2)c2ccncc2)c1 (stereo not given) | inconclusive: 31.6 µM [inhibitor, single point] | 
O=C(N/N=C/c1ccc(O)c(O)c1)c1cc(-c2ccccc2)nc2ccccc12 | inconclusive: 15.8 µM [quencher, side channel, partial curve] | 
CC(NC(=O)/C(=C\c1cccc([N+](=O)[O-])c1)NC(=O)c1ccco1)C(=O)O (stereo not given) | inconclusive: 31.6 µM [quencher, side channel, single point] | 
